This note sets out measurements from PMC6919601, “Identification of Plasmodium dipeptidyl aminopeptidase allosteric inhibitors by high throughput screening” (PLoS ONE, 2019).

In all, about 110,000 compounds went through this assay and about 230 (0.21%) showed an effect of 50% or more. The list shows a part of the results.
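Also: 30 min substrate incubation versus DMSO and 10 µM JCP410 controls.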

DPAP1, sequence (Q8IIJ9 whole entry, looked up): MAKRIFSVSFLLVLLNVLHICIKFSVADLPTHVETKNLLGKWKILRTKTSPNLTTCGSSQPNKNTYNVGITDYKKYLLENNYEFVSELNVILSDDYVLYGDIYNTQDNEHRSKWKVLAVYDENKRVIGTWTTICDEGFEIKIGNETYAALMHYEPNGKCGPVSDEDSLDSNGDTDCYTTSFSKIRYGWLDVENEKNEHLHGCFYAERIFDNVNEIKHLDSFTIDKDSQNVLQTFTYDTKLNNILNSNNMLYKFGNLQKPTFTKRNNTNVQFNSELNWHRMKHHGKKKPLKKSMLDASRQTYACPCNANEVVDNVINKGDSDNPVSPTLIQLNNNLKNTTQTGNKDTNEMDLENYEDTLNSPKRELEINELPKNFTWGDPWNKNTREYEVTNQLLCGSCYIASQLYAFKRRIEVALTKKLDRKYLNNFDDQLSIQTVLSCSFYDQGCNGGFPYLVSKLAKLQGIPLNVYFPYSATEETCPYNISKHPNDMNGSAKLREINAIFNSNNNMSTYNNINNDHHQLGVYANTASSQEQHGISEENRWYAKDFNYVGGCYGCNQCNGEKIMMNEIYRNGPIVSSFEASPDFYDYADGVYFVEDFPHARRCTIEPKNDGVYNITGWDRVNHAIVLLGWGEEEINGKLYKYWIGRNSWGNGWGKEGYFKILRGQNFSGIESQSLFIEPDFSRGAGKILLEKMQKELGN

The assay has as its target DPAP1 (Plasmodium falciparum, UniProt Q8IIJ9). The assay is described as follows: primary screen, percent inhibition; read by cleavage of a fluorogenic dipeptide substrate; higher = more effect of the substance. Also on record: species or system P. falciparum D10 trophozoite lysates; single well.
As for `COc1cccc2c3c(c(C)nc12)CC(C)S3` (stereo not shown), the “% Inhibition @ 10 uM” value was -1.08%.

`COc1cccc(C2C(C#N)=C(N)Oc3c2c(C)nn3-c2ccccc2)c1` (stereo not shown): the “% Inhibition @ 10 uM” value is on record as -4.12%.

`CC1=C(C(=O)Nc2ccc(C)cc2)C(c2cc(Br)ccc2O)NC(=O)N1` (stereo not shown): the “% Inhibition @ 10 uM” value turned out to be 12.2%.

As for `Cc1oc(NC(=O)C(F)(F)F)c(C#N)c1C`, the “% Inhibition @ 10 uM” value was 1.26%.

In the case of `O=C1c2ccccc2C(=O)c2c1ccc1nonc21`, the “% Inhibition @ 10 uM” value was 2.54%.

As for `COc1ccccc1CCNCc1cccc(C(F)(F)F)c1`, the “% Inhibition @ 10 uM” value is on record as 10.5%.

As to `O=C(Cc1cccc2ccccc12)Nc1ccc(S(=O)(=O)N2CCCCCC2)cc1`, the “% Inhibition @ 10 uM” value is listed as -2.19%.

As to `CCCCOc1ccc(C2C(C#N)=C(N)Oc3[nH]nc(COC)c32)cc1OC` (stereo not shown), the “% Inhibition @ 10 uM” value is 2.3%.

On to `CCOc1ccc(S(=O)(=O)N2CCN(S(=O)(=O)c3ccc(OCC)cc3)CC2)cc1`, for which the “% Inhibition @ 10 uM” value is recorded as -0.185%.

Consider `NC(=O)c1c(NC(=O)C2CC=CCC2C(=O)O)sc2c1CCCCCC2` (stereo not shown), for which the “% Inhibition @ 10 uM” value is listed as 2.13%.

In the case of `CCOC(=O)C1=C(C)NC(=O)NC1c1ccc([N+](=O)[O-])cc1` (stereo not shown), the “% Inhibition @ 10 uM” value is given as -5.2%.

Consider `Cn1c(=O)[nH]c(=O)c2c1nc(N1CCCCC1)n2Cc1ccc(Cl)cc1`, for which the “% Inhibition @ 10 uM” value was 2.03%.

With `CN(C)c1ccc(C(c2ccc(N(C)C)cc2)(c2ccc(N(C)C)cc2)C(F)(F)F)cc1`, the “% Inhibition @ 10 uM” value is given as -5.65%.

`O=S(=O)(c1cccc(-c2cn3cccnc3n2)c1)N1CCOCC1`: the “% Inhibition @ 10 uM” value was found to be 2.08%.

`CCOc1ccccc1N(CC(=O)N1CCN(c2ccccc2)CC1)S(=O)(=O)c1ccccc1`: the “% Inhibition @ 10 uM” value is on record as 1.72%.

Regarding `CCOC(=O)c1c(NC(=O)/C(C#N)=C/c2ccc(OC)cc2)sc(C(C)=O)c1C`, the “% Inhibition @ 10 uM” value amounted to 1.37%.

For `COc1cc(OC)cc(C(=O)Nc2sc(C)c(C)c2C(N)=O)c1`, the “% Inhibition @ 10 uM” value is reported as 5.97%.

Consider `CCN1CCN(C(=O)c2ccc(CS(=O)(=O)Cc3cccc(C)c3)o2)CC1`, for which the “% Inhibition @ 10 uM” value is -1.79%.

`CCCCNC(=O)CC1Sc2ccccc2NC1=O` (stereo not shown): the “% Inhibition @ 10 uM” value is -1.79%.

Regarding `CC(C)(C)C(/C=C\c1ccc(Cl)cc1Cl)n1nnnc1C1(Nc2ccc(Cl)cc2)CCCCC1` (stereo not shown), the “% Inhibition @ 10 uM” value was 0.00784%.

As for `OCCN(CCO)c1nc(O)ncc1F`, the “% Inhibition @ 10 uM” value stood at 4.42%.

As to `COc1ccc2nccnc2c1[N+](=O)[O-]`, the “% Inhibition @ 10 uM” value was -4.96%.

In the case of `CCOC(=O)c1cc(-c2ccc(OC)c(S(=O)(=O)N3CCC(C)CC3)c2)on1`, the “% Inhibition @ 10 uM” value was -4.52%.

As for `O=C1/C(=C/c2ccccc2)CCC1C1CCCC1` (stereo not shown), the “% Inhibition @ 10 uM” value is 12.7%.

With `CCc1c(-c2ccccc2)nc2ccccc2c1C(=O)NCc1ccco1`, the “% Inhibition @ 10 uM” value was -2.26%.

For the compound `C[C@@H](C[C@H](NC(=O)c1cc2c(C(F)(F)F)nn(C)c2s1)C(=O)NCC#N)c1ccccc1`, the “% Inhibition @ 10 uM” value is -1.5%.

Take `NC(=O)c1sc2nc(-c3cccnc3)ccc2c1N`: the “% Inhibition @ 10 uM” value is recorded as 1.96%.

Consider `COc1ccc(CC(=O)Nc2cccc(C)c2)cc1OC`, for which the “% Inhibition @ 10 uM” value is on record as -1.17%.

For `CCCCSCC(O)COc1ccccc1` (stereo not shown), the “% Inhibition @ 10 uM” value was -1.22%.

On to `CC(NS(=O)(=O)c1cccc(C(F)(F)F)c1)C(=O)O` (stereo not shown), for which the “% Inhibition @ 10 uM” value is -3.74%.

Take `CCOC(=O)c1sc2ncn3c(-c4ccc(C)cc4)nnc3c2c1C`: the “% Inhibition @ 10 uM” value is reported as 0.565%.

For the compound `O=C(NCC1CCCO1)Nc1cnc2ccccc2c1O` (stereo not shown), the “% Inhibition @ 10 uM” value is listed as -1.07%.

`COc1ccc(-c2nc(CSCC(=O)NC3CCC(C)CC3)c(C)o2)cc1OC` (stereo not shown): the “% Inhibition @ 10 uM” value is given as -2.85%.

Turning to `O=C(CCS(=O)(=O)c1ccc(Br)s1)NCc1cccs1`, the “% Inhibition @ 10 uM” value is listed as -3.36%.

As to `N#CC1=C(N)NC(S)=C(C(N)=O)C1c1ccccc1F` (stereo not shown), the “% Inhibition @ 10 uM” value is 3.92%.

As for `CC1CC(=O)C2=C(C1)OC(N)=C(C#N)C2c1cc(Br)cs1` (stereo not shown), the “% Inhibition @ 10 uM” value is 0.317%.

As for `N#Cc1ccc(-c2ccccn2)nc1SC/C=C/c1ccccc1`, the “% Inhibition @ 10 uM” value is -7.3%.

Consider `CCC1CCc2c(sc(N)c2C#N)C1` (stereo not shown), for which the “% Inhibition @ 10 uM” value was determined as 11.8%.

Turning to `Cc1ccc(SC(C)C(=O)Nc2cccc(N(C)S(C)(=O)=O)c2)cc1` (stereo not shown), the “% Inhibition @ 10 uM” value is recorded as 1.94%.

In the case of `S=C(NCc1ccco1)NC1CCCC1`, the “% Inhibition @ 10 uM” value is 0.392%.

Consider `COc1ccccc1NC(=O)C1=C(C)Nc2nc(CCCO)nn2C1c1cccnc1` (stereo not shown), for which the “% Inhibition @ 10 uM” value is recorded as -0.185%.

As for `COc1ccc(C(=O)/C=C/c2c(C)[nH]c3ccccc23)cc1`, the “% Inhibition @ 10 uM” value was found to be 19.1%.

With `O=C(COc1ccc(Cl)cc1Br)Nc1ccc(S(=O)(=O)N2CCCC2)cc1`, the “% Inhibition @ 10 uM” value was -0.132%.

Turning to `Nc1c(C(=O)NCc2ccccc2)sc2nc3c(cc12)CN(Cc1ccccc1)CC3`, the “% Inhibition @ 10 uM” value is listed as -4.74%.

`CCc1ccc(-c2nc3cc(NC(=O)c4ccco4)ccc3o2)cc1`: the “% Inhibition @ 10 uM” value is reported as -4.6%.

On to `CCOc1ccc(CCNC(=O)C(CC(C)C)N2Cc3ccccc3C2=O)cc1` (stereo not shown), for which the “% Inhibition @ 10 uM” value is given as -5.84%.

Turning to `Cc1ccc(Cn2nc(C)c(NC(=O)c3nc4nc(C)cc(C(F)F)n4n3)c2C)cc1`, the “% Inhibition @ 10 uM” value is reported as -0.958%.

As for `CC1(C)CC(=O)c2c(O)cc(Cc3ccccc3)cc2O1`, the “% Inhibition @ 10 uM” value is given as -2.98%.

As for `CC(=O)c1ccc(NC(=O)C(C)Oc2ccccc2)cc1` (stereo not shown), the “% Inhibition @ 10 uM” value is listed as -2.65%.

As for `Clc1ccc(N2CCN(Cc3ccsc3)CC2)cc1`, the “% Inhibition @ 10 uM” value is -0.127%.

Regarding `CC(C)C(=O)Nc1nsc(-c2ccc(Cl)cc2)n1`, the “% Inhibition @ 10 uM” value is given as -1.11%.

Consider `Cc1ccc(C(=O)O)cc1-c1ccc(C=C2C(=O)c3ccccc3C2=O)o1`, for which the “% Inhibition @ 10 uM” value was determined as 0.189%.
